# Laboratory results reported in PubChem BioAssay AID485297 (National Center for Advancing Translational Sciences (NCATS), 2010).
# About 9,100 (2.8%) of roughly 320,000 compounds were called active. This list was built around the results that the source calls inconclusive (neither active nor inactive); the mix of calls is not that of the screen. Calls follow the shape of the dose curve; as a rule, active = well fitted activation curve with a large enough effect; inconclusive = small, poorly fitted or top-dose-only effect; inactive = no such curve, though single readings can be large or run the other way. Potencies of inconclusive entries are left out as doubtful fits.
# Assay: qHTS Assay for Rab9 Promoter Activators; also: nearly all actives have a fitted effect of over 60% in size
# Conditions: Huh7 Rab9 promoter-luciferase reporter, luminescence, 24 h; series mostly up to 9.22 µM
# Procedure, shortened: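 Steps: seed 1500 Huh7 Rab9-luc cells per well, rest 2 h at 37 °C; add compound in DMSO; incubate 24 h; add luciferase reagent, 10 min ambient; read luminescence.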
# Potency is read from the fitted curve at half-maximal effect; tags tell the direction and shape of the fitted curve.
row,SMILES,Potency
1,COC(=O)c1ccc(-c2nc3ccc(C)cc3o2)cc1,"inconclusive [activator, partial curve]"
2,COc1ccc2nc(SCC(=O)/C(C#N)=C(\C)N)[nH]c2c1,active: 0.631 µM
3,Cc1cc(C)c2nc(-n3nc(C)cc3N)cc(C)c2c1,"inconclusive [activator, single point]"
4,CCOC(=O)C1C2C=CC3(CN(C4CCCC4)C(=O)C13)O2 (stereo not drawn),inactive
5,Cc1cc(/C(N)=N/OC(=O)Nc2ccc(Cl)cc2)no1,"inconclusive [activator, single point]"
6,Cc1ccc(/C=C/c2nnc(-c3cccc(C)c3)o2)cc1,inactive
7,O=C(/C(=N/N=C/c1ccc(O)c(O)c1O)c1ccccc1)c1ccccc1,inactive
8,CCn1cc(Cl)c(C(=O)Nc2nccs2)n1,"inconclusive [activator, partial curve]"
9,COc1ccc(NC(=O)c2ccccc2)cc1,active: 1.78 µM
10,Cc1cc(C)n(CCC(=O)N/N=C/c2ccc(O)cc2)n1,inactive
11,CC(C)=CC(=O)OCc1cc([N+](=O)[O-])cc2c1OCOC2,"inconclusive [activator, partial curve]"
12,Cc1cc2nc(-c3cccnc3SCC(=O)NC3CC3)[nH]c2cc1C,"inconclusive [activator, partial curve]"
13,COc1ccccc1N(C)S(=O)(=O)c1ccc(C)c(C(=O)Nc2nccs2)c1,inactive
14,CCOc1ccc(NC(=O)c2nsc(Cl)c2Cl)cc1,active: 1.41 µM
15,COc1ccc(-n2ncc3c(SCC(=O)NNC(C)=O)ncnc32)cc1,"inconclusive [activator, partial curve]"
16,O=C(Nc1scc(-c2ccccc2)c1C(=O)O)c1ccc(F)cc1,"inconclusive [activator, partial curve]"
17,Cc1ccc(-c2noc(C3CCN(C(=O)Nc4ccc(C#N)cc4)CC3)n2)o1,inactive
18,COc1cc(/C=N/Nc2ccccn2)ccc1OCC(C)C,"inconclusive [activator, partial curve]"
19,COc1ccc(NC(=O)c2ccccc2NC(=O)CSc2ccccc2)cc1,"inconclusive [activator, partial curve]"
20,CC(C)(C)C(=O)N1CCN(c2nc3ccc(Cl)cc3s2)CC1,"inconclusive [activator, partial curve]"
21,CC(=O)Cc1nsc(Nc2ccc(Cl)cc2)n1,"inconclusive [activator, partial curve]"
22,Cc1ccc(SCC(=O)Nc2cccc(-c3nnc(-c4ccco4)o3)c2)cc1,active: 3.16 µM
23,O=C(Nc1ccc2nc3n(c(=O)c2c1)CCCCC3)C(=O)N1CCN(c2ccc(F)cc2)CC1,inactive
24,O=C(Nc1cccc(S(=O)(=O)NCc2ccco2)c1)c1cc(-c2ccccc2)nc2ccccc12,inactive
25,NC(=O)C1=C[C@H](C2CCCCC2)C[C@H](OCc2ccc(CO)cc2)O1,active: 3.16 µM
26,O=C(NCC1CCCO1)c1cccc(Oc2ccccc2)c1 (stereo not drawn),"inconclusive [activator, single point]"

row,SMILES,Potency
1,Cc1ccc2c(c1)NC(=O)CC(c1ccccc1)=N2,"inconclusive [activator, partial curve]"
2,Cc1csc(NC(=O)c2ccc(=O)[nH]c2)n1,"inconclusive [activator, single point]"
3,CC1CCCN(C(=O)Cn2c3ccccc3c3nc4n(c(=O)c32)CCS4)C1 (stereo not drawn),"inconclusive [activator, single point]"
4,Cc1noc(C)c1C(=O)Nc1nc(-c2cc(F)ccc2F)cs1,"inconclusive [activator, partial curve]"
5,C/C(COc1ccccc1)=N\NC(=O)c1nnn(-c2nonc2N)c1CSc1ccccc1,inactive
6,Cc1cc(Nc2ccc(C)c(Cl)c2)nc(N2CCOCC2)n1,inactive
7,Fc1cccc(Cl)c1Cc1noc(/C=C/c2ccccc2)n1,"inconclusive [activator, single point]"
8,CCCn1nnc2sc3c(c2c1=O)CCC(C)C3 (stereo not drawn),"inconclusive [activator, single point]"
9,CCCc1nn(C)c(C(=O)Nc2ccc3ccccc3c2)c1Cl,"inconclusive [activator, partial curve]"
10,O=C1CCC(C(=O)OCC(=O)c2c[nH]c3ccccc23)=NN1,inactive
11,c1ccc(OCCOc2cccc3cccnc23)cc1,"inconclusive [activator, single point]"
12,Cc1ccc(NC(=O)N/C=C/c2ccco2)cc1,active: 2.82 µM
13,COc1ccc(N=Cc2c(O)c3ccccc3n2C(C)=O)cc1,"inconclusive [activator, single point]"
14,O=C(NC(N1CCOCC1)C(Cl)(Cl)Cl)c1ccco1 (stereo not drawn),"inconclusive [activator, partial curve]"
15,COc1ccc(-c2cn(/N=C/c3ccc(Cl)cc3Cl)c(N)n2)cc1,inactive
16,Cc1cc(NC(=O)c2ccc(NC(=O)C(C)C)cc2)no1,"inconclusive [activator, single point]"
17,CCCCN(C(=O)c1cc2c(s1)CCC2)c1c(N)n(CCCC)c(=O)[nH]c1=O,inactive
18,C/C(=N\Nc1ccc(Cl)c(C(=O)O)c1)c1cccc2ccccc12,inactive
19,COC(=O)Cn1c(=NC(=O)c2ccc(Cl)s2)sc2cc(C)ccc21,"inconclusive [activator, partial curve]"
20,Cc1ccc(/C=N/N2C(=O)c3ccccc3NC2c2ccc(C)cc2)cc1 (stereo not drawn),"inconclusive [activator, single point]"
21,CCOC(=O)N=S(=O)(Oc1ccc([N+](=O)[O-])cc1)c1ccccc1 (stereo not drawn),"inconclusive [activator, single point]"
22,CCCCCCc1cc2cc(C(=O)NC)c(=N)oc2cc1O,inactive
23,Cc1cc(C)c(C#N)c(SCc2ccc(F)cc2)n1,"inconclusive [activator, single point]"
24,Cc1cs/c(=N/C(=S)Nc2ccccc2)n1C,active: 1.58 µM
25,O=c1c(Cl)c(N2CCOCC2)cnn1-c1nc2ccccc2[nH]1,active: 1.58 µM
26,O=S(=O)(c1ccc(OCc2nc3ccccc3s2)c(Cl)c1)N1CCOCC1,"inconclusive [activator, partial curve]"

row,SMILES,Potency
1,Cc1cccc([C@@H]2[C@@H]3C(=O)N(Cc4ccccc4)C(=O)[C@@H]3[C@]3(CC(C)C)C(=O)N(c4cccc(F)c4)C(=O)N23)c1,inactive
2,COc1cc(/C=C(\C#N)C(=O)Nc2ccccc2F)ccc1OCCN1CCOCC1,"inconclusive [activator, partial curve]"
3,O=C(COC(=O)c1cccc(C(=O)OCC(=O)c2ccc(Br)cc2)n1)c1ccc(Br)cc1,inactive
4,CN(C)c1ccc(/C=C(/NC(=O)c2ccccc2)C(=O)N2CCCC2)cc1,inactive
5,Cc1ccc(/C=C2\Sc3ccccc3C2=O)s1,"inconclusive [activator, single point]"
6,O=C(N/N=C\c1cccc(Cl)c1)c1ccc(Cn2cc(Br)c([N+](=O)[O-])n2)o1,inactive
7,COc1ccc(-c2nnc(SCC(=O)c3cccs3)o2)cc1,active: 2.24 µM
8,CCCCc1ccc(NC(=S)N2CCCC2)cc1,"inconclusive [activator, partial curve]"
9,Nc1nc(COC(=O)C2CCN(C(=O)c3ccc(Cl)cc3)CC2)nc(Nc2ccccc2)n1,inactive
10,COc1ccc(Cl)cc1C(=O)Nc1ccc2c(c1)OCO2,"inconclusive [activator, single point]"
11,Cc1cccc2nc(CNc3ccc(F)cc3)cn12,"inconclusive [activator, single point]"
12,CS(=O)(=O)N1CCC(Oc2ccccc2C(=O)N2CCC[C@H]2CO)CC1,inactive
13,CCN(CC(=O)Nc1c(F)cccc1F)C(=O)CCN1C(=O)C2CC=CCC2C1=O (stereo not drawn),inactive
14,CC(=O)COc1ccc2c(C)c(-c3ccccc3)c(=O)oc2c1,active: 3.16 µM
15,COc1ccccc1NC(=O)O/N=C(\N)c1ccccc1,inactive
16,Cc1ccc(N(CC(=O)NC2CCCCC2)C(=O)CNC(=O)c2ccco2)c(C)c1,inactive
17,COc1ccc(C(=O)Nc2ccc3nc(C)sc3c2)cc1OC,"inconclusive [activator, single point]"
18,Cc1ccc(-c2cc(=O)c3cc(Cl)ccc3[nH]2)cc1,active: 3.98 µM
19,COc1ccc(Nc2nc(N)nc(CSC(=S)N3CCCCC3)n2)cc1,"inconclusive [activator, partial curve]"
20,CN(CCc1ccccn1)C(=S)Nc1ccc(Cl)cc1Cl,"inconclusive [activator, single point]"
21,CSc1ccccc1C(=O)C1CCCN(C(=O)CCc2cccnc2)C1 (stereo not drawn),"inconclusive [activator, single point]"
22,CCCc1ccc(-c2cc(C(=O)N3CCN(c4ccccn4)CC3)c3ccccc3n2)cc1,"inconclusive [activator, full curve]"
23,CC(C)(C)c1ccc(C(=O)Nc2ncn[nH]2)cc1,active: 2.51 µM
24,O=C(Cn1ccc2ccccc2c1=O)NCCC(=O)Nc1cccnc1,"inconclusive [activator, single point]"
25,O=C(CSc1nnc(-c2ccccc2O)o1)N1CCOCC1,active: 3.16 µM
26,CSc1nc(-c2ccc(N(C)C)cc2)c(C#N)c(=O)n1C,"inconclusive [activator, single point]"
